Some entries of the source have several records that differ or are many. This is not the full list of results. The source may hold further records. Values given together repeat one measurement in other runs, samples, wells, individuals or studies.
Tested on: 349418-098-R-PDC spheroids, viability, % test/control
Experiment: Anticancer human tumor 349418-098-R-PDC patient-derived lung adenocarcinoma cell line growth inhibition [IpAb]
Settings: spheroids with HUVEC and MSC; for IC50: compound alone
Source text: Combinatorial screen of targeted agents with ipatasertib and abemaciclib in multi-cell type tumor spheroids
A high-throughput screen of multi-cell type tumor spheroids was designed to identify active combinations of targeted small molecules and ipatasertib or abemaciclib. Complex spheroids include a stromal component modeled by human endothelial cells (HUVEC) and fibroblasts modeled by human mesenchymal stem cells (MSCs). The concentration ranges selected for each drug and investigational agent were based upon clinically achievable concentrations if the clinical Cmax of the agent was known.
Compounds. The drugs and investigational agents: ipatasertib (NSC767898), abemaciclib(NSC768073), selumetinib (NSC741078), trametinib (758246), adavosertib (NSC754352), everolimus (NSC733504), sapanisertib (NSC764658), vemurafenib (NSC761431), venetoclax (NSC766270), copanlisib (NSC809693), apelisib (NSC765974), palbociblib (NSC758247), vemurafenib (NSC761431), dabrafenib (NSC764134), ravoxertinib (NSC781343), BMS-387032 (NSC767048), sotorasib (NSC818433), talazoparib (NSC767125) and afursertib (NSC778305), were obtained from the National Cancer Institute (NCI) Developmental Therapeutics Program Chemical Repository. The FDA-approved anticancer drug set is available from the NCI Developmental Therapeutics Program. […] The stock solutions were prepared in dimethyl sulfoxide (DMSO, Sigma-Aldrich, St. Louis, MO, cat. D2650) at 800-fold the tested concentration and stored at -70 degrees C prior to their use. All drugs and investigational agents were tested over a range starting from a high concentration at or near the clinical Cmax and decreasing in half-log increments. If the clinical Cmax for an agent had not been determined, the highest concentration tested was 10 microM.
NCI60 Cell Culture. NCI60 cell lines were obtained from the NCI Developmental Therapeutics Program Tumor Repository. […] The optimal seeding densities for each of the cell lines at each time point assessed were determined prior to performing the concentration response studies. […]
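Also: spheroids exposed to compounds for 7 days.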

IC50 | Compound | viability, T/C (compound alone 0.316 µM, stronger effect = lower value)
< 31.6 nM and 410 nM | Cn1nccc1Nc1nccc(-c2ccn(C(CO)c3ccc(Cl)c(F)c3)c(=O)c2)n1 (stereo not drawn) | –
363 nM and < 9.49 nM | Cn1cnc2c(F)c(Nc3ccc(Br)cc3Cl)c(C(=O)NOCCO)cc21 | –
– | CC(C)NCC(C(=O)N1CCN(c2ncnc3c2C(C)CC3O)CC1)c1ccc(Cl)cc1 (stereo not drawn) | 55.9, 67.2, 51.8, 42, 57.6, 57.2, 62.4, 41.9, 62.5, 46.9, 52.5, 51.7, 52%

— PubChem BioAssay AID2060340 (Molecular Pharmacology Branch, DTP, NCI, 2025)
